About 800 (1.6%) of roughly 50,000 compounds showed an effect of 50% or more. The list shows a part of the results.
Each molecule was assayed against Bcl-2-like protein 10 (Homo sapiens) (UniProt Q9HD36) (assay: Phenotype converters, Bcl-B/TR3 peptide binding displacement, primary biochemical FP (AID 1240;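 further: 0% = Bcl-B with tracer peptide and DMSO and 100% = tracer peptide lacking Bcl-B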)). Conditions: GST-Bcl-B / FITC-TR3 peptide fluorescence polarization; stronger effect = higher value; compound at 3.75 mg/L.
UniProt Q9HD36, sequence (Q9HD36 whole entry, looked up): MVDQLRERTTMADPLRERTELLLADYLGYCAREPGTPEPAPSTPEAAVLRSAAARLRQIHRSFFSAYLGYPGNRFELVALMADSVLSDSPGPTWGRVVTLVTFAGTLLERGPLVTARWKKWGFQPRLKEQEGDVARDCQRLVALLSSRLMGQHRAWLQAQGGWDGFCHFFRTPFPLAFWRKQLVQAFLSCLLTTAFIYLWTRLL

Question: Which displacement does the source give for `Cc1ccc(S(=O)(=O)N(CC(=O)Nc2ccc(F)cc2)Cc2ccccc2)cc1` here?
Answer: -12.1%

Question: With `O=C(Cc1ccc(Cl)cc1)c1ccc2c(c1)OCCO2` as the molecule, how does the displacement read?
Answer: 2.8%

Question: For `Cc1ccc(S(=O)(=O)N(CC(=O)Nc2ccccc2F)c2cccc(Br)c2)cc1`, which displacement is on record?
Answer: -10.5%

Question: With `C#Cc1cccc(NC(=O)c2cccc(N3C(=O)c4ccc(Oc5cccc([N+](=O)[O-])c5)cc4C3=O)c2)c1` as the molecule, how does the displacement read?
Answer: 5.1%

Question: How did the displacement turn out when `CC(=O)c1ccc(NC(=S)NC(NC(=O)c2ccc(Cl)cc2Cl)C(Cl)(Cl)Cl)cc1` (stereo not drawn) was run?
Answer: 12.1%

Question: How did the displacement turn out when `COc1ccc2oc(=O)c(C(=O)Nc3ccc(C)cc3C)cc2c1` was run?
Answer: 5.3%

Question: For `COc1ccc(NC(=O)C(=O)NCC(C)C)cc1Cl`, which displacement is on record?
Answer: 8.5%

Question: `COc1ccccc1NC(=O)C1=C(C)NC(=S)NC1c1ccc([N+](=O)[O-])cc1` (stereo not drawn) was tested. Which displacement did it give?
Answer: -3.2%

Question: `O=C(COc1ccc2c(-c3ccccc3)cc(=O)oc2c1)OCc1ccccc1` was tested. Which displacement did it give?
Answer: 10.1%

Question: Which displacement does the source give for `CCCOc1cccc(C(=O)Nc2ccc3c(c2)OCCO3)c1` here?
Answer: -12.5%

Question: With `CCCCCCCCS(=O)(=O)c1sc2nc(C)cc(C)c2c1N` as the molecule, how does the displacement read?
Answer: -6.7%

Question: How did the displacement turn out when `Clc1ccc(-c2noc(C(c3ccccc3)c3ccccc3)n2)cc1` was run?
Answer: 8.1%

Question: Which displacement does the source give for `COC(=O)c1c(C)oc2ccc(OCc3ccccc3Br)cc12` here?
Answer: 9.3%

Question: `CC(C)CNC(=O)c1ccccc1NC(=O)C(c1ccccc1)c1ccccc1` was tested. Which displacement did it give?
Answer: 12.6%

Question: How did the displacement turn out when `COc1ccc(/C=C2\SC(N3CCCCCC3)=NC2=O)cc1OC` was run?
Answer: -1.9%

Question: How did the displacement turn out when `Cc1ccc(C(=O)N2CCN(S(=O)(=O)c3ccccc3[N+](=O)[O-])C2)cc1` was run?
Answer: 20%

Question: `C=CCN1C(=O)/C(=C\c2cccc(OC)c2)SC1=Nc1ccccc1` was tested. Which displacement did it give?
Answer: 4.6%

Question: `CCn1nnnc1-c1ccc(OC)c(S(=O)(=O)Nc2ccc(Cl)cc2)c1` was tested. Which displacement did it give?
Answer: 9.3%

Question: `O=C(Nc1cc(C(F)(F)F)ccc1Cl)c1nc2nc(-c3ccccc3)cc(C(F)(F)F)n2n1` was tested. Which displacement did it give?
Answer: 9.6%

Question: For `COc1cc2c(cc1OC)C(CC(=O)Nc1ccc(C)cc1C)=NC(C)(C)C2`, which displacement is on record?
Answer: 15.7%

Question: Which displacement does the source give for `Cc1c(Cl)cccc1NC(=O)C(=O)NCCCO` here?
Answer: 3.9%

Question: Which displacement does the source give for `COC(=O)c1c(N)sc(C(=O)Nc2ccccc2C)c1C` here?
Answer: -3.8%

Question: How did the displacement turn out when `O=C(Nc1ccccc1)C12CC3CC(CC(C3)C1)C2` was run?
Answer: 17.4%

Question: With `CC1CCCN(Cc2c(O)ccc3cc(-c4nc5ccccc5[nH]4)c(=O)oc23)C1` (stereo not drawn) as the molecule, how does the displacement read?
Answer: 106%

Question: How did the displacement turn out when `COc1cc(C=Nc2ccc(-c3ccc(N=Cc4ccc(OC(C)=O)c(OC)c4)c(C)c3)cc2C)ccc1OC(C)=O` was run?
Answer: 11.2%

Question: For `Cc1nnc(NC(=O)CN2C(=O)/C(=C/c3cccc(Br)c3)SC2=S)s1`, which displacement is on record?
Answer: 9.6%

Question: With `O=C1NN(c2ccccc2)C(=O)/C1=C/c1ccc(-c2ccc(C(=O)O)cc2)o1` as the molecule, how does the displacement read?
Answer: 29.5%

Question: For `C=C(C)CNC(=S)Nc1sc(CC)cc1C(=O)OCC`, which displacement is on record?
Answer: 1.8%

From PubChem BioAssay AID1240 (Sanford-Burnham Center for Chemical Genomics, 2008)
